The source of these data is a protein production outcome set (Wang et al. 2014).

The nature of the data set: label from the status in PepcDB records.

For “IDEGPLAFATPEQISMDLKNELMYQLEQDHDLQAILQERELLPVKKFESEILEAISQNSVVIIRGATGCGKTTQVPQFILDDFIQNDRAAECNIVVTQPRRISAVSVAERVAFERGEEPGKSCGYSVRFESILPRPHASIMFCTVGVLLRKLEAGIRGISHVIVDEIHERDINTDFLLVVLRDVVQAYPEVRIVLMSATIDTSMFCEYFFNCPIIEVYGRTYPVQEYFLEDCIQMTHFVPPP”, the protein production entry is given as “failed”.
The same measure for “MSLKIAEIQLFQHDLPVVNGPYRIASGDVWSLTTTIVKIIAEDGTIGWGETCPVGPTYAEAHAGGALAALEVLASGLAGAEALPLPLHTRMDSLLCGHNYAKSALDIAVHDLWGKRLGVPVHELLGGALTDSVSSYYSLGVMEPDEAARQALEKQREGYSRLQVKLGARPIEIDIEAIRKVWEAVRGTGIALAADGNRGWTTRDALRFSRECPDIPFVMEQPCNSFEDLEAIRPLCHHALYMDEDGTSLNTVITAAATSLVDGFGMKVSRIGGLQHMRAFRDFCAARNLPHTCDDAWGGDIVSAACTHIASTVLPRLMEGAWLAQPYVAEHYDAENGVRIEGGRIRVPQGPGLGLTIDPERFGPPLFSAEGHHHHHH”: “not failed”.
